In all, about 33,000 sequences were measured (“E-score (-0.5 to 0.5)”: median about -0.056, highest 2% from about 0.38 on). This is one part of the list.

Results on 109 sequences are retold here after the supplement of paper PMC3334620.

In the assay the target is Stb4 (UniProt P50104). Put plainly: PBM E-score (8-mer binding enrichment) (E-score (-0.5 to 0.5)); higher = stronger / more preferred TF binding; most listed sequences are background and not binding sites. The note with it: protein concentration: 200 nM; construct: GST-DNA-binding domain. Here is the method: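 Universal 'all 10-mer' protein binding microarrays (Agilent AMADID 015681) probed with GST-tagged S. cerevisiae TFs (full-length or DBD) made by in vitro transcription/translation (PURExpress), about 100-200 nM. Bound TF was detected with fluorescent anti-GST. Each ungapped 8-mer (which stands for itself and its reverse complement) is scored by the PBM enrichment score (E-score), a modified Wilcoxon-Mann-Whitney statistic from -0.5 to +0.5, computed with the Universal PBM Analysis Suite. Scale: above 0.35 generally sequence-specific binding.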
ACGGACGA: the “PBM E-score” value is 0.0137.
The result for TTGATCAA reads -0.205.
The result for GTTGCGGA reads 0.229; that for CAGTAACA, 0.0723; that for CCAAGCCC, -0.177.
As for CCTTTAGC, the “PBM E-score” value was -0.117.
The result for CATACCGC reads 0.0129.
For the sequence AGCTCGTG, the “PBM E-score” value turned out to be 0.0631.
The result for GCCTCCAC reads -0.253.
As to CTGCACGA, the “PBM E-score” value is -0.138.
The result for AAACGTTT reads 0.165; that for ACCGATCC, 0.374; that for CCACGGTA, 0.126.
The result for ACGCGCTG reads -0.0936.
Consider TGGGGGAA, for which the “PBM E-score” value was -0.18.
The result for GTCACCAA reads -0.278.
Consider AATGGGGA, for which the “PBM E-score” value was -0.247.
The result for GACACAAC reads -0.159; that for GCATATGA, -0.0199; that for AAACAGTA, -0.104.
CGAGCCTA: the “PBM E-score” value is 0.127.
Consider AATGGGCG, for which the “PBM E-score” value was -0.00171.
For AAGAGTTA, the “PBM E-score” value is -0.197.
As for GAAACCAA, the “PBM E-score” value was 0.104.
The result for ACGTGCTG reads -0.144.
The result for AAGCGCGC reads 0.00851; that for ATAGGGCC, -0.0867.
Consider TCCTAGAA, for which the “PBM E-score” value worked out at 0.0302.
For CCGAGTTC, the “PBM E-score” value is 0.396.
The result for TCCGGGCA reads 0.32.
With CGATACGC, the “PBM E-score” value worked out at 0.176.
The result for CCTCGATC reads -0.0971; that for GAGGAGAC, -0.0994.
AGTGTTCA: the “PBM E-score” value is -0.0759.
For CTGTGCCC, the “PBM E-score” value came out at 0.064.
The result for ACCCGTCC reads 0.175; that for GGCGTTAA, 0.0285; that for ACAGCGGT, -0.105.
As for GTCAACTA, the “PBM E-score” value was -0.144.
Regarding ATCACGGA, the “PBM E-score” value came to 0.305.
As for ACAGAGCC, the “PBM E-score” value was -0.145.
The result for CCGTGTCG reads 0.251; that for CACCAATC, 0.0462; that for ACGAGTCT, -0.142.
The result for CTGGCAGA reads -0.0155; that for CTACGTCA, -0.0185.
The result for CACGTTAG reads -0.166.
On to GAATCAGC, for which the “PBM E-score” value was -0.0158.
For the sequence CCAAAGCG, the “PBM E-score” value was 0.0505.
In the case of ATATTGGG, the “PBM E-score” value is -0.0321.
The result for AGTTAACT reads 0.0736; that for CATGTCAA, -0.218; that for AATGACCC, -0.0646.
The result for ATCTCAAC reads 0.0299.
The result for CCCTATTA reads -0.0824; that for ACAGGGTG, -0.173.
Take AGAGCGCG: the “PBM E-score” value was -0.0383.
The result for CAGGCCAA reads -0.0749; that for CATCGAAA, -0.118; that for ACTCGATA, -0.127.
The result for AATGTCGG reads 0.267.
AATACGCG: the “PBM E-score” value is -0.077.
The result for CCCCTATA reads -0.147; that for TATCATCA, -0.175.
The result for AGGGGGCA reads -0.145; that for ATCTGTTA, -0.111; that for CGATCCCA, 0.0781.
The result for AAGAAACT reads -0.156; that for AACATAAT, -0.00773.
Turning to ATTATGGC, the “PBM E-score” value is -0.0605.
The result for GTGGTATA reads -0.168; that for CAAAATGA, -0.149.
In the case of CCCCCTGA, the “PBM E-score” value was -0.303.
The result for ACGAGCAA reads -0.0941.
The result for CCTTATCC reads 0.175; that for CAATGAAC, -0.0689.
The result for ACACCACG reads -0.219; that for ACCATGAG, -0.154; that for CTATCGTA, -0.199.
On to AGATCCTC, for which the “PBM E-score” value is 0.0598.
Consider CAATTTTC, for which the “PBM E-score” value was found to be 0.0831.
For the sequence ATCGTTTA, the “PBM E-score” value is -0.0716.
With AGCTGGAG, the “PBM E-score” value was -0.223.
The result for ATGCGCCC reads 0.0117; that for ATGAAGGG, -0.114; that for GACAGTAA, 0.041.
For the sequence TGAATAAA, the “PBM E-score” value was -0.157.
In the case of CGTTGGGA, the “PBM E-score” value was -0.27.
As to CTACGGAG, the “PBM E-score” value is 0.137.
The result for GCCAGACC reads -0.0555; that for CGGGATAG, 0.191; that for CAAGCTAC, -0.0425.
The result for AGGGCTTG reads -0.349.
Take GCCCAGGC: the “PBM E-score” value was -0.21.
ACTGCAAT: the “PBM E-score” value is -0.0373.
The result for CGCCGAAG reads 0.372; that for ACCACTGG, -0.103.
As to CGACCACA, the “PBM E-score” value is -0.047.
The result for AGCAGCAG reads -0.176.
ACTCGCGA: the “PBM E-score” value was -0.12.
Turning to GACGCGCC, the “PBM E-score” value was -0.102.
The result for ACAACGAA reads -0.091; that for ACAATTCC, -0.00681.
The result for GACCATAA reads -0.0497; that for CGCGTACA, -0.19; that for AGTGCGTC, -0.216.
The result for TAAAGGAA reads -0.157.
Turning to CGTAGACC, the “PBM E-score” value is -0.072.
The result for CCGCCGGA reads 0.366.
